# Reference: the supplement of paper PMC3334620
# Whole data set: some 33,000 sequences, median “E-score (-0.5 to 0.5)” near -0.032, cut for the highest 2% near 0.36. The list shows a part of the results.
# Molecular target: T1, Sko1 (UniProt Q02100)
# T1 sequence: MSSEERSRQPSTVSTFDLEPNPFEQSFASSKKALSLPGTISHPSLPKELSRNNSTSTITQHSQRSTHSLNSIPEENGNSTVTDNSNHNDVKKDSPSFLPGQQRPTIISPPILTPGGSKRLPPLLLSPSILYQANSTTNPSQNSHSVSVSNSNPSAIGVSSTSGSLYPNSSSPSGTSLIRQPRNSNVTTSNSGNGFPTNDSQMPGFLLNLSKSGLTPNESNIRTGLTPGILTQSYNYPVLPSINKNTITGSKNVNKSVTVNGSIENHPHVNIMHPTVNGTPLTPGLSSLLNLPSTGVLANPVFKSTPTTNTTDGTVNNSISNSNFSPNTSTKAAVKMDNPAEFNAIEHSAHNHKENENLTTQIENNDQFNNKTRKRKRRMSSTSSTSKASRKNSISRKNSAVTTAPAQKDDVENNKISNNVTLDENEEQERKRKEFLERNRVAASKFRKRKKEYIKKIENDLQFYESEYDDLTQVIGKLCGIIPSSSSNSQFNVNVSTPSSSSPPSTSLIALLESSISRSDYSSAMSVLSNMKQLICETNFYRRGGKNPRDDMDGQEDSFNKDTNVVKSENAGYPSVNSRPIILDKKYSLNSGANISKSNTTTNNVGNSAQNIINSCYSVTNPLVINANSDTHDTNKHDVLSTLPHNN
# Experiment: PBM E-score (8-mer binding enrichment) (E-score (-0.5 to 0.5)); higher = stronger / more preferred TF binding; most listed sequences are background and not binding sites
# Conditions: protein concentration: 200 nM; construct: GST-full length
# How it was run: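 Full-length yeast transcription factors or their DNA-binding domains, GST-tagged and expressed with PURExpress, were applied at about 100-200 nM to universal all-10-mer Agilent arrays. These arrays had been made double-stranded by primer extension on fresh or once-stripped slides. Detection used fluorescent anti-GST, normalisation used masliner, and E-scores for ungapped eight-base words pooled with reverse complements came from the Universal PBM Analysis Suite.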
row,Sequence,PBM E-score
1,AGAGGCTC,-0.268
2,CATTAATG,0.13
3,GGGACTAC,-0.228
4,CTTGGTAC,0.17
5,AATATGCC,-0.24
6,CTTTTCAC,0.105
7,CTGATTAA,0.118
8,CAGTAATA,0.257
9,CGAGCGGA,-0.044
10,CAATGCAC,0.0332
11,GAGGGCGC,-0.132
12,GGAGAGCA,-0.26
13,CATAGATG,-0.242
14,GACGCAGA,0.194
15,GGAAGGAC,-0.112
16,GAGTTAAA,0.0434
17,ATCTGAAG,-0.0841
18,AATCGTTC,0.0316
19,CCTGGGTC,-0.197
20,AGTTGATG,0.111
21,AAGTACAG,-0.0644
22,CGCAGCAA,-0.0188
23,AAATTGCT,0.0342
24,GGGCGCTA,-0.0254
25,ATCCCAAG,-0.247

row,Sequence,PBM E-score
1,ACCCACAC,-0.0169
2,TGTCTAAA,0.196
3,CGTCCAAG,-0.155
4,ATCTTATC,0.0347
5,AGATGTCG,-0.045
6,ACCCGCGA,-0.176
7,AACTCGGG,-0.12
8,AGGCGGCA,-0.145
9,CCTAAGAC,-0.162
10,CATGGTCG,-0.101
11,GGCAACCC,-0.242
12,AACACATT,0.041
13,CAACACTA,0.15
14,GAAATGGA,-0.149
15,ACTATGCT,-0.0356
16,AGTTGTCG,0.178
17,TTAAATAA,0.117
18,TCGCGCAA,0.241
19,ACAAGGCG,-0.232
20,ATCCGTAA,0.0757
21,CAGGAATG,0.0412
22,CGTGGAGC,-0.183
23,GAGCAGAA,-0.0557
24,CGCGCCTA,-0.0485
25,GGATAGGA,-0.104

row,Sequence,PBM E-score
1,ACTTGGAT,0.0792
2,TGAGTAAA,0.0672
3,AAAAAAAT,0.149
4,CTCAGAGC,-0.163
5,GAAAACGA,0.0788
6,TGGTAACA,0.215
7,AAATTACC,0.0333
8,AGAGTAGC,-0.00834
9,GAGAAAAC,-0.00846
10,ATATGAAA,0.115
11,ATAATTGG,-0.0453
12,AATATAGT,0.173
13,CTGCAGTC,-0.113
14,TCCGACCA,-0.247
15,TATCAGAA,0.0439
16,ATGAGTTC,-0.0909
17,ATAACCGG,-0.211
18,AGACTATG,-0.0224
19,GTATTATA,0.235
20,CCCAAGTC,-0.34
21,CACAGAAA,0.0195
22,GACTATGA,0.19
23,CGGCATAA,-0.051
24,CCTCTCAC,0.0369
25,TTAACCAA,0.0412

row,Sequence,PBM E-score
1,GAAACGCA,0.126
2,CTCAGGGC,-0.255
3,CTGCCTCC,-0.241
4,AAAGGGGC,-0.272
5,TCCCTACA,0.0727
6,AAGCCGGG,-0.114
7,GTAGGAAC,0.132
8,GAATACCA,0.111
9,CGTTGTGA,0.105
10,CTTCCGCA,-0.22
11,CTATGGAA,-0.0767
12,CTGGAAAG,-0.161
13,ACATATCA,0.173
14,CGAGTGGC,-0.313
15,CAAACATG,0.0181
16,ACCTTGGC,-0.147
17,CACAATAC,0.101
18,ACGTCGTC,0.387
19,AGCCAAAA,-0.0432
20,AGTTCGTA,0.26
21,TGCGTCCA,0.155
22,CTTGGTTC,0.0171
23,CCCGGTAC,-0.0432
24,CCTGCACA,-0.226
25,ATGCATAA,0.175

row,Sequence,PBM E-score
1,CTTGGTGC,-0.315
2,ATGCATCC,-0.281
3,GAATCCTA,-0.00199
4,CTAGGGCA,-0.422
5,AGTCTCGC,0.0689
6,AAAGCCTA,0.0391
7,TCTCTTCA,-0.0732
8,CTCCCCAG,-0.352
9,ATGTGTTA,0.242
10,TAGGTGAA,0.145
11,GCGACCAA,-0.0498
12,CGCGTAAA,0.311
13,AACGGCAA,0.00579
14,CATTCATA,0.105
15,ACCCTAAG,-0.189
16,CTCCTCAC,-0.183
17,GTAGTCCA,0.0309
18,GCGCGGCA,-0.112
19,TACCGTAA,0.253
20,AAAGGGTC,-0.231
21,AGGGCACG,-0.0627
22,GCTATCGA,-0.126
23,TCAACACA,0.231
24,AGTCCAAT,-0.021
25,CTCAATAA,-0.0259

row,Sequence,PBM E-score
1,CCTCGTGC,-0.207
2,CAAGCGAC,-0.0544
3,ACTCATAG,0.0586
4,GCTTAGCA,-0.0816
5,CCTCGGAA,-0.184
6,GCACTAGA,-0.156
7,AACGATAG,0.0884
8,ATACGTTA,0.436
9,CTAGCCCC,-0.218
10,ATCAGAGC,-0.00388
11,ACCCTCTA,-0.224
12,ATAGTCCC,-0.199
13,AACGACAC,0.0493
14,ATCCGGAA,-0.116
15,ACATGGAT,0.18
16,AACTGCGT,0.317
17,AAAATTAT,0.284
18,CATCTTTA,0.0696
19,ATCTTCAT,0.00049
20,GATGAACA,0.0426
21,CTTGTTTC,0.0414
22,AACTTCGA,0.0163
23,CTCAGATA,0.12
24,CTTATTGC,-0.146
25,AAGTATGT,0.0767

row,Sequence,PBM E-score
1,CAGGCGCA,-0.194
2,AGAACGTG,0.246
3,AATAACAT,0.194
4,CAACCTTG,-0.0863
5,CGGTGGGC,-0.195
6,AGCAGTGC,-0.123
7,TAGGCGGA,-0.0852
8,TTGCGCAA,0.287
9,TAGGGTCA,-0.0745
10,ACATCGAC,0.0663
11,AATTTACT,0.174
12,AGACCGCC,-0.249
13,CCCGGACG,-0.0953
14,ATCACCAA,0.0298
15,ATCCCACC,-0.13
16,CGCATTTA,0.0968
17,CCCAGAGG,-0.256
18,ATCCGAAG,-0.05
19,AGGCGCAA,-0.0633
20,TTCCGCAA,-0.163
21,ATATCCCG,0.044
22,CATAGTAC,0.0534
23,GGTTCCGA,-0.251
24,GAACCCTC,-0.252
25,CGAACTAG,-0.00834

row,Sequence,PBM E-score
1,CGTCTATC,0.189
2,CAGTTTCA,-0.107
3,CTTGTAGA,-0.109
4,GTACCCAC,-0.111
5,GTAACATA,0.0632
6,GTTTGCTA,0.119
7,CCACTATC,-0.119
8,TTAACGAA,0.183
9,AGGCACGC,0.0182
10,GAACTTAA,0.0436
11,CTTCCGCC,-0.176
12,ATCATTGA,0.272
13,GTATGACA,0.35
14,ATGAGAGC,-0.0622
15,TACGTCAA,0.479
16,CCTGAGCG,-0.0783
17,AACTAATG,0.158
18,ACCATTAA,0.246
19,ATTCCTTA,0.0463
20,AACCCAGA,-0.178
21,AACGGTGT,-0.203
22,GCAGTGAA,0.133
23,CACACATA,0.0532
24,CAGTACTC,-0.219
25,CTGTGCAA,-0.0253

row,Sequence,PBM E-score
1,CCGTGACC,-0.28
2,AGGCTCTC,-0.231
3,CCCTAGTC,-0.293
4,GAAGGCTC,-0.149
5,CTGACGCA,0.403
6,CCACCGTA,-0.0821
7,CTAAGAAC,-0.0466
8,TCTTCGAA,-0.0561
9,CACATGAA,0.166
10,ATAAGAAC,0.12
11,CAGCACGG,-0.21
12,ACGAGTAG,0.0721
13,AACTTATA,0.187
14,ATCAGCGG,-0.159
15,AATTTGCC,-0.129
16,CTTCGACC,-0.0696
17,ATACCAAT,-0.0776
18,CAATGCCG,-0.128
19,GATTAGCC,-0.151
